From ChEMBL document CHEMBL4888484, “Replenishing the malaria drug discovery pipeline: Screening and hit evaluation of the MMV Hit Generation Library 1 (HGL1) against asexual blood stage Plasmodium falciparum ,using a nano luciferase reporter read-out” (2022)
In all, about 150,000 compounds went through this assay and about 540 (0.36%) showed an effect of 50% or more. Some of the results follow.

Tested on: Plasmodium falciparum
Assay: Primary screen in NF54 nanoGlo assay, in single point, at 2uM, 72h; a lower Z score goes with more inhibition
Format: functional, Erythrocyte
Conditions: timepoint 72 hour

| SMILES | % Inhibition | Z score |
| --- | --- | --- |
| Cn1cc(C(=O)N[C@H]2CC(=O)N(Cc3cccc4ccccc34)C2)ccc1=O | -2% | 0.29 |
| CC1CCN(S(=O)(=O)c2ccc3c(ccc(=O)n3CC(=O)NCc3ccccn3)c2)CC1 | -15% | 1.89 |
| CC(C)CCNC(=O)c1[nH]cnc1C(=O)N1C[C@@H](C)O[C@@H](C)C1 | 15% | -1.77 |
| COCCC(=O)NCc1sc(COC)nc1C | -3% | 0.36 |
| COc1ccc([C@@H]2CCCN2C(=O)c2cnsn2)cc1OC | -5% | 0.49 |
| Cc1cc(C)n(CCN2CCC[C@@H]2CNC(=O)OC(C)(C)C)n1 | 2% | -0.18 |
| CC(C)(C)OC(=O)NC1CCCC1NC1CC2CCC1O2 (configuration not stated) | -7% | 1.3 |
| Cc1nc2c(c(N(C)C[C@H]3CCN(C)C3)n1)Cc1ccccc1OC2 | -13% | 2.52 |
| COc1ccc(N2CCN(C[C@H]3CCOC3)CC2(C)C)cc1 | -6% | 1.02 |
| CCCCC(=O)N1CCC[C@H]1c1nnc(C(=O)Nc2ccc3c(c2)OCO3)s1 | -11% | 1.22 |
| CCc1cc(Cl)ccc1NC(=O)NC[C@H](O)CN(C)C | -1% | 0.16 |
| COc1cccc(CN2CC=C(C(=O)N3CCN(c4ccccc4Cl)CC3)CC2)c1 | -3% | 0.52 |
| Cc1noc(COCC(=O)N[C@@H](CNC(=O)OC(C)(C)C)c2ccc3ccccc3c2)n1 | -5% | 0.56 |
| Cc1ccccc1CNC(=O)c1ccc(S(=O)(=O)N2CCC(C)CC2)s1 | -2% | 0.27 |
| COc1ccc(NC(=O)c2ccccc2NC(=O)C(=O)N2CCOCC2)cc1 | -17% | 2.21 |
| CNC(=O)Cc1csc(NC(=O)CCn2cnnn2)n1 | -13% | 1.64 |
| CCCn1cc(CNC(=O)[C@H]2CCCN(c3nnc4cccc(C)n34)C2)c(C)n1 | -12% | 2.05 |
| Cc1csc(CCC(=O)N2CC(O)CC2c2ccccc2)n1 (configuration not stated) | -12% | 2 |
| COc1ccc(NC(=O)N2CCC[C@H](Oc3ccncc3Cl)C2)cc1OC | 1% | -0.12 |
| O=S(=O)(Nc1ccccc1-c1cn2c(n1)CCCC2)N1CCCC1 | -10% | 1.17 |
| CC1(S(=O)(=O)NCc2nc(C(F)(F)F)c[nH]2)CC1 | -5% | 0.96 |
| Cc1nc(Cn2nnc(CN(C)C(=O)c3ccccc3)n2)sc1C | -8% | 1.38 |

| SMILES | % Inhibition | Z score |
| --- | --- | --- |
| Cc1nn(C)c(Cl)c1C(=O)N1CCc2sccc2C1 | -11% | 1.68 |
| CCn1nccc1CNC(=O)N1CCC[C@H](n2ccc(C(=O)NC)n2)C1 | -3% | 0.59 |
| O=C(Nc1ccc(N2CCOCC2)cc1)[C@@H](c1ccccc1)C1CCCCC1 | -36% | 4.21 |
| CC1(O)CN(C(=O)C(C)(C)CC(F)F)C1 | -9% | 1.45 |
| CCOC1CC(CC(=O)Nc2cc(Cl)cc3cn[nH]c23)C1 (configuration not stated) | -5% | 0.98 |
| COCCC(=O)NCCc1noc(C)n1 | 2% | -0.21 |
| O=C(c1ccnnc1)N1CC2CCC2(Nc2ncc(C(F)(F)F)cc2Cl)C1 (configuration not stated) | 28% | -3.58 |
| Cc1ccc(CNC(=O)c2cnn3c(-c4ccc(C)c(C)c4)ccnc23)cc1C | -5% | 0.73 |
| NS(=O)(=O)CC1CCN(C(=O)NCC2(C3CC3)CCC2)CC1 | -15% | 2.69 |
| CN(CCCCS(C)(=O)=O)Cc1ccc(Cl)cc1Cl | 5% | -0.9 |
| Cc1nnc(CN(CCNS(=O)(=O)c2ccccc2)C(C)(C)C)o1 | -3% | 0.45 |
| CCn1c(-c2cccc3cnccc23)nc2c1c(=O)[nH]c(=O)n2CC | -2% | 0.18 |
| CNc1nc2c(c(C(=O)N3CCCC3)n1)CN(c1ncnc3ccsc13)CC2 | -16% | 2.11 |
| CCNc1ncc(C(=O)N(Cc2ccccc2)[C@H]2CCS(=O)(=O)C2)cn1 | 4% | -0.63 |
| Cc1ccccc1-n1nccc1[C@H]1OCC[C@@H]1C(=O)O | 29% | -3.33 |
| CCCCNC(=O)N1C(C)CC2CCCCC21 (configuration not stated) | -7% | 1.04 |
| COc1cc(NC(=O)[C@@H](c2cccnc2)C(C)C)cc(OC)c1 | -32% | 3.75 |
| Cc1oc(C(C)C)nc1C(=O)N1CCC[C@@](O)(CO)C1 | -6% | 0.9 |
| CC1(C)CN(S(=O)(=O)c2ccc(C#N)c(F)c2)C1C1CCCO1 (configuration not stated) | -6% | 0.73 |
| Cc1ccc(N2CN(CC(=O)Nc3cccc(F)c3)S(=O)(=O)c3cccnc32)cc1 | -19% | 2.01 |
| Cc1cc(C)nc(CNc2nc3c(s2)c(C)nn3C)n1 | -13% | 1.52 |
| COc1ccc2[nH]c3c(c2c1)CCN1C(=O)N(c2ccccc2C(=O)NC(C)CCc2ccccc2)C(=O)[C@]31C (some centres not stated) | 6% | -0.77 |

| SMILES | % Inhibition | Z score |
| --- | --- | --- |
| CN(C)C(=NCCC1CCCC1)N(C)C | -7% | 0.94 |
| O=C(Nc1cccc2ccccc12)N1CC[S+]([O-])CC1 | -7% | 1.3 |
| C[C@@H]1CN(C(=O)c2cccn2C)CCN1C(=O)OC(C)(C)C | -2% | 0.31 |
| C[C@@H](Cc1cccs1)C(=O)NCc1ccc(S(N)(=O)=O)cc1 | -1% | 0.2 |
| Cc1nn(C)c(C)c1C(=O)N1CC[C@H](c2ccc3c(c2)CCO3)C1 | -7% | 0.86 |
| Cc1cnn(CC2CCCN2C(C)c2nc(C3CC3)no2)c1 (configuration not stated) | -1% | 0.14 |
| CN(Cc1cc(C#N)ccn1)Cc1cc(-c2ccccc2)n[nH]1 | -19% | 1.93 |
| CCc1nnc(NC(=O)[C@]2(C(C)C)CNC(=O)C2)s1 | 19% | -2.21 |
| CCOC(=O)CN1CC[C@@H](O)C[C@H]1C(=O)OC | -2% | 0.22 |
| CC[C@H]1CCCCN1CC(=O)N(C)Cc1cnccn1 | -4% | 0.38 |
| CCCc1nc(CN2CCS(=O)(=O)CC2)cs1 | 9% | -0.99 |
| COCCN1C[C@@H](C(=O)N2CCC(Oc3cccc(Cl)c3)CC2)CCC1=O | -9% | 0.95 |
| Cc1cc(NC(=O)CS(=O)(=O)C(C)C)cc(C)c1Br | 3% | -0.35 |
| O=C(NCc1ccccc1Cl)[C@@H]1C[C@H](n2cnnn2)CN1C1CCCC1 | -6% | 0.74 |
| COC(=O)[C@H]1CCc2nnc(-c3cccc(S(C)(=O)=O)c3)n2C1 | 5% | -0.7 |
| Cc1cc(C)c(CN2CCOC3(CCCC3)C2)cc1CN1CCN(C)CC1 | -6% | 0.87 |
| CN(C)c1[nH]cnc2c3cc(F)ccc3nc1-2 | -28% | 3.31 |
| COc1cccc(Cc2nc(-c3nnn(-c4ccc(F)cc4)c3C)no2)c1 | -10% | 1.87 |
| O=C(CCN[C@H](c1ccccc1)C1CCC1)N1CCOCC1 | -10% | 1.08 |
| Cc1nc(O)nc(C)c1CCc1nc(C2CCCC2)nn1-c1ccccc1 | -15% | 1.64 |
| COc1ccc(-c2cc(C(=O)N[C@H]3CCCc4ccccc43)c3ccccc3n2)cc1OC | -13% | 2.09 |
| O=C(c1ccno1)N1CC(c2nc(-c3ccsc3)no2)C1 | -8% | 0.93 |

| SMILES | % Inhibition | Z score |
| --- | --- | --- |
| CC(C)NC(=O)NCCn1nnc2cc(S(=O)(=O)NC(C)C)ccc21 | -16% | 1.64 |
| CC(C)N(C(=O)CN1CCC[C@H]1c1ccc2c(c1)OCCCO2)c1ccccc1 | -38% | 4.48 |
| CCn1nc(-c2ccccn2)nc1CCC(N)=O | -5% | 0.99 |
| CN(CCn1cccn1)Cc1cn(C(C)(C)C)nn1 | -12% | 2 |
| COc1ccccc1N1CCN(CC(=O)O)C1=O | 26% | -3.28 |
| Cn1c(CNCC2CC2)nc2ccccc21 | -17% | 1.7 |
| O=C(NC1CCS(=O)(=O)CC1)c1ccccc1-c1ccccc1 | -15% | 1.24 |
| COCCN(CC(=O)N(C)C)C(=O)c1cc(Cl)cc(Cl)c1 | -8% | 0.83 |
| O=C(NCCN1Cc2cc(Cl)ccc2OCC1=O)c1cccc(OC(F)(F)F)c1 | -13% | 2.21 |
| Cc1cc(CNC(=O)N2CCC(C)CC2)no1 | -3% | 0.55 |
| CC(C)c1nccc(CN(C)CCn2cccn2)n1 | -10% | 1.1 |
| O=C(Cc1ccccc1)Nc1ccc(Cc2nnc3ccccn23)cc1 | -23% | 2.15 |
| COc1cccc(CO[C@@H]2CN(C(=O)Cc3cc(F)cc(F)c3)CC(=O)N(Cc3ccccn3)C2)c1 | -11% | 1.4 |
| CC(C)c1cc([C@@H]2CCCN2S(=O)(=O)c2cccc3nsnc23)no1 | -4% | 0.53 |
| Cc1cc2c(cc(C(=O)N3CCC(C(=O)NCCc4ccc(Cl)cc4)CC3)n2Cc2c(F)cccc2Cl)o1 | -9% | 1.1 |
| CN1C(=O)c2ccc(NC(=O)c3sc4ccccc4c3Cl)cc2C1=O | -14% | 2.57 |
| C[C@@H](O)CNC(=O)NCCN1CCc2c(Cl)cccc2C1 | -6% | 0.77 |
| CS(=O)(=O)NCCNC(=O)NCc1nc(Cc2cccs2)no1 | -11% | 1.63 |
| C[C@@H](CNC(=O)Nc1ccn(CC(F)F)n1)N1CCOCC1 | 2% | -0.3 |
| C[C@H]1CN(C(=O)COc2cc(Cl)c(Cl)cc2Cl)CCC1=O | 31% | -3.52 |
